Some of the results follow. The list includes weakly bound sequences.

The target of this assay is T1, MBP-FoxP3dN (UniProt Q99JB6).
T1 sequence: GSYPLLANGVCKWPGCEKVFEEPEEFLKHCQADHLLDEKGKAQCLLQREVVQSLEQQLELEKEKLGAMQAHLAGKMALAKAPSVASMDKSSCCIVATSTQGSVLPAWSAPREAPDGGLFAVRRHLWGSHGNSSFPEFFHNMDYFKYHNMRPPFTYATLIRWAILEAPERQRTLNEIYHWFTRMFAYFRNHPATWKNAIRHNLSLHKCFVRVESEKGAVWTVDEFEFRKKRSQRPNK
As to the kind of experiment: PD-seq (MBP pull-down with sequencing). Conditions: 20 mM Tris-HCl pH 7.5, 100 mM NaCl, 1.5 mM MgCl2, 0.4 uM protein, 0.1 uM dsDNA library, 30 min, room temperature, amylose pull-down; high values mean tight binding; double strand, one strand shown.
Turning to “GATGATTGTTCTCCCAGCTGATGAATTATTCAAATCGAGTAAACAAATTTTCCTAATCTTTCTGTTCAAGCGCCATCTAC”, the binding signal (RPM ratio (pull-down/input)) amounted to 0.376.

Regarding “GATGATTGTTCTCCCAGCTGATGAATTCTACAAATCGAGTAAACAAATTTTCCTAATCTTTCTGTTCAAGCGCCATCTAC”, the binding signal (RPM ratio (pull-down/input)) is 0.261. Consider “GATGATTGTTCTCCCAGCTGATGAATTCCGTGAGTCGAGTAAACAAATTTTCCTAATCTTTCTGTTCAAGCGCCATCTAC”, for which the binding signal (RPM ratio (pull-down/input)) turned out to be 0.472.

As to “GATGATTGTTCTCCCAGCTGATGAATTCCTTTCATCGAGTAAACAAATTTTCCTAATCTTTCTGTTCAAGCGCCATCTAC”, the binding signal (RPM ratio (pull-down/input)) amounted to 0.303. For “GATGATTGTTCTCCCAGCTGATGAATTACCGATATCGAGTAAACAAATTTTCCTAATCTTTCTGTTCAAGCGCCATCTAC”, the binding signal (RPM ratio (pull-down/input)) was found to be 0.441. With “GATGATTGTTCTCCCAGCTGATGAATTTGAGAGCTCGAGTAAACAAATTTTCCTAATCTTTCTGTTCAAGCGCCATCTAC”, the binding signal (RPM ratio (pull-down/input)) is 0.258. Regarding “GATGATTGTTCTCCCAGCTGATGAATTTATAATTTCGAGTAAACAAATTTTCCTAATCTTTCTGTTCAAGCGCCATCTAC”, the binding signal (RPM ratio (pull-down/input)) was found to be 0.716. Turning to “GATGATTGTTCTCCCAGCTGATGAATTCTGTAAGTCGAGTAAACAAATTTTCCTAATCTTTCTGTTCAAGCGCCATCTAC”, the binding signal (RPM ratio (pull-down/input)) stood at 0.91. For the sequence “GATGATTGTTCTCCCAGCTGATGAATTCGGTAGTTCGAGTAAACAAATTTTCCTAATCTTTCTGTTCAAGCGCCATCTAC”, the binding signal (RPM ratio (pull-down/input)) was 1.15. Under “GATGATTGTTCTCCCAGCTGATGAATTATCACGGTCGAGTAAACAAATTTTCCTAATCTTTCTGTTCAAGCGCCATCTAC” stands 0.289; under “GATGATTGTTCTCCCAGCTGATGAATTGATGAACTCGAGTAAACAAATTTTCCTAATCTTTCTGTTCAAGCGCCATCTAC”, 0.317; under “GATGATTGTTCTCCCAGCTGATGAATTTGACTTATCGAGTAAACAAATTTTCCTAATCTTTCTGTTCAAGCGCCATCTAC”, 0.798.

Take “GATGATTGTTCTCCCAGCTGATGAATTACCCCTTTCGAGTAAACAAATTTTCCTAATCTTTCTGTTCAAGCGCCATCTAC”: the binding signal (RPM ratio (pull-down/input)) was 0.31. Turning to “GATGATTGTTCTCCCAGCTGATGAATTTAATCTATCGAGTAAACAAATTTTCCTAATCTTTCTGTTCAAGCGCCATCTAC”, the binding signal (RPM ratio (pull-down/input)) is 0.474. “GATGATTGTTCTCCCAGCTGATGAATTGCACTTTTCGAGTAAACAAATTTTCCTAATCTTTCTGTTCAAGCGCCATCTAC”: the binding signal (RPM ratio (pull-down/input)) came to 1.32.

For the sequence “GATGATTGTTCTCCCAGCTGATGAATTTTACAGTTCGAGTAAACAAATTTTCCTAATCTTTCTGTTCAAGCGCCATCTAC”, the binding signal (RPM ratio (pull-down/input)) amounted to 0.334. For the sequence “GATGATTGTTCTCCCAGCTGATGAATTTCCGTCTTCGAGTAAACAAATTTTCCTAATCTTTCTGTTCAAGCGCCATCTAC”, the binding signal (RPM ratio (pull-down/input)) is 0.426. Under “GATGATTGTTCTCCCAGCTGATGAATTAAAATATTCGAGTAAACAAATTTTCCTAATCTTTCTGTTCAAGCGCCATCTAC” stands 0.441; under “GATGATTGTTCTCCCAGCTGATGAATTTAAAACATCGAGTAAACAAATTTTCCTAATCTTTCTGTTCAAGCGCCATCTAC”, 0.573. Under “GATGATTGTTCTCCCAGCTGATGAATTAAATGTATCGAGTAAACAAATTTTCCTAATCTTTCTGTTCAAGCGCCATCTAC” stands 1.12. In the case of “GATGATTGTTCTCCCAGCTGATGAATTATCATTTTCGAGTAAACAAATTTTCCTAATCTTTCTGTTCAAGCGCCATCTAC”, the binding signal (RPM ratio (pull-down/input)) stood at 0.575. In the case of “GATGATTGTTCTCCCAGCTGATGAATTCCATGGGTCGAGTAAACAAATTTTCCTAATCTTTCTGTTCAAGCGCCATCTAC”, the binding signal (RPM ratio (pull-down/input)) came out at 0.335.

As for “GATGATTGTTCTCCCAGCTGATGAATTACAGGCGTCGAGTAAACAAATTTTCCTAATCTTTCTGTTCAAGCGCCATCTAC”, the binding signal (RPM ratio (pull-down/input)) turned out to be 0.779. The result for “GATGATTGTTCTCCCAGCTGATGAATTTAAGAATTCGAGTAAACAAATTTTCCTAATCTTTCTGTTCAAGCGCCATCTAC” reads 0.586; that for “GATGATTGTTCTCCCAGCTGATGAATTCACAAGCTCGAGTAAACAAATTTTCCTAATCTTTCTGTTCAAGCGCCATCTAC”, 0.292; that for “GATGATTGTTCTCCCAGCTGATGAATTTCGAGCATCGAGTAAACAAATTTTCCTAATCTTTCTGTTCAAGCGCCATCTAC”, 0.806.

In the case of “GATGATTGTTCTCCCAGCTGATGAATTAGTTCTATCGAGTAAACAAATTTTCCTAATCTTTCTGTTCAAGCGCCATCTAC”, the binding signal (RPM ratio (pull-down/input)) was found to be 0.416. Under “GATGATTGTTCTCCCAGCTGATGAATTCATCATCTCGAGTAAACAAATTTTCCTAATCTTTCTGTTCAAGCGCCATCTAC” stands 1.24; under “GATGATTGTTCTCCCAGCTGATGAATTGAGGGCGTCGAGTAAACAAATTTTCCTAATCTTTCTGTTCAAGCGCCATCTAC”, 0.482. The result for “GATGATTGTTCTCCCAGCTGATGAATTTCAATTCTCGAGTAAACAAATTTTCCTAATCTTTCTGTTCAAGCGCCATCTAC” reads 0.544. Under “GATGATTGTTCTCCCAGCTGATGAATTTGGTCTTTCGAGTAAACAAATTTTCCTAATCTTTCTGTTCAAGCGCCATCTAC” stands 0.63. As for “GATGATTGTTCTCCCAGCTGATGAATTTCACAACTCGAGTAAACAAATTTTCCTAATCTTTCTGTTCAAGCGCCATCTAC”, the binding signal (RPM ratio (pull-down/input)) came to 0.373.

The values above are taken from article PMC12820563.
